Where a chain is given by its changes, count along the chain named. No constants are given. Whether binding was seen depends on the method and setting. Some binding calls cover weakened binding; strength is not graded here.
What was measured:
Assay in all cases: two-hybrid; Gal4 DNA-binding domain (pGBD) and activation domain (pGAD) fusions in S. cerevisiae pJ69-4a; growth on SD His- and Ade-deficient plates, 30°C, 4-5 days
[1] = target: T1, RecG R95A Gal4 hybrid (E. coli) (UniProt P24230)
T1 sequence: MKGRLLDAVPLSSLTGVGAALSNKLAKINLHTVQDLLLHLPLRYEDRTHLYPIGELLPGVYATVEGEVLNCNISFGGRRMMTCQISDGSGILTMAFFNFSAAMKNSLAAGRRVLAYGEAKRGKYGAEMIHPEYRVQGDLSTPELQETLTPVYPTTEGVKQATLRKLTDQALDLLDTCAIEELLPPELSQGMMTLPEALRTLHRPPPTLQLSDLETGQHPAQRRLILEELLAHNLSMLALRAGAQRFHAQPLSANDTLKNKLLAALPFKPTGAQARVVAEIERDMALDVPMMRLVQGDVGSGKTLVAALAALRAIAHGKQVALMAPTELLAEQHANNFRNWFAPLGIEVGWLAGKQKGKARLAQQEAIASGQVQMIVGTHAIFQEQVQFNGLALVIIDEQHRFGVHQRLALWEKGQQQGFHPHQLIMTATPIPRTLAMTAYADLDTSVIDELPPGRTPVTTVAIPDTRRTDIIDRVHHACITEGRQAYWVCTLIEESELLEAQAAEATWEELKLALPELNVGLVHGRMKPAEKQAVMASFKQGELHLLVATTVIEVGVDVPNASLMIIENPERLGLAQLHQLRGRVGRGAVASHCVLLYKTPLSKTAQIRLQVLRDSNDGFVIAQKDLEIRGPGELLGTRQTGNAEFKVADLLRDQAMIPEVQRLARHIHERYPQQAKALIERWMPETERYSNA

Amino acid sequences for entries named in this document (tags omitted).
UniProt P0AGE0: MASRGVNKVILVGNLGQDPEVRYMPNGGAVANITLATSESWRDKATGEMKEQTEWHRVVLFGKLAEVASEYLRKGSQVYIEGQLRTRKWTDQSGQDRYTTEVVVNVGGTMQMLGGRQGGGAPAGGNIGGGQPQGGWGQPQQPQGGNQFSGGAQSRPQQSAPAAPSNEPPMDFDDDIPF

[2] = target: T2, RecG F75A Gal4 hybrid (E. coli) (UniProt P24230)
T2 sequence: T1 sequence with F75A, A95R

[3] = target: T3, RecG R467E Gal4 hybrid (E. coli) (UniProt P24230)
T3 sequence: T1 sequence with A95R, R467E

“SSB Gal4 hybrid (from UniProt P0AGE0 1-178)” was tested, and the binding [1] was “binds”, the binding [2] was “binds” and the binding [3] was “no binding”.
